Some of the results follow. The full chains were built here from the parent and the listed change. Values near 0.05 are background.
B1: TEV protease; numbered along this chain (parent)
chain: MGESLFKGPRDYNPISSSICHLTNESDGHTTSLYGIGFGPFIITNKHLFRRNNGTLVVQSLHGVFKVKDTTTLQQHLVDGRDMIIIRMPKDFPPFPQKLKFREPQREERICLVTTNFQTKSMSSMVSDTSCTFPSGDGIFWKHWIQTKDGQCGSPLVSTRDGFIVGIHSASNFTNTNNYFTSVPKNFMELLTNQEAQQWVSGWRLNADSVLWGGHKVFMVKPEEPFQPVKEATQL

Variants of: B1
Assay: raw area under fraction-flipped curve 0-4 h after induction (AUC4h, not background-subtracted), DNA-recorder readout of cleavage of the substrate (dimensionless); higher = more cleavage of the substrate by the protease variant
Conditions: temperature: 34 °C; time window: 0-4 h after rhamnose induction
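Also: Bxb1 expression induced with 0.2% (w/v) L-rhamnose at OD600 near 0.5, cultures sampled hourly, flipped fraction per protease–substrate barcode pair counted by paired-end Illumina sequencing.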

Variant | area with substrate EALYFQS | area with substrate ECLYFQS | area with substrate EDLYFQS | area with substrate EGLYFQS | area with substrate EHLYFQS | area with substrate EILYFQS | area with substrate EKLYFQS | area with substrate EMLYFQS | area with substrate EPLYFQS | area with substrate EQLYFQS | area with substrate ERLYFQS | area with substrate ESLYFQS | area with substrate ETLYFQS | area with substrate EVLYFQS | area with substrate EWLYFQS | area with substrate EELYFQS | area with substrate EFLYFQS | area with substrate ELLYFQS | area with substrate EYLYFQS
MGESLFKGPRDYNPISSSICHLTNESDGHTTSLYGIGFGPFIITNKHLFRRNNGTLVVQSLHGVFKVKDTTTLQQHLVDGRDMIIIRMPKDFPPFPQKLKFREPQREERICLVTTNFQTKSMISMVSDTSCTFPSGDGIFWKHWIQTKDGQCGSPLVSTRDGFIVGIHSASNFTNTNNYFTSVPKNFMELLTNQEAQQWVSGWRLNADSVLWGGHKVFMVKPEEPFQPVKEATQL [S123I] | 0.0897 | 0.0755 | 0.107 | 0.0883 | 0.0454 | 0.0946 | 0.106 | 0.0864 | 0.136 | 0.104 | 0.0923 | 0.111 | 0.181 | 0.0863 | 0.0764 |  |  |  | 
MGESLFKGPRDYNPISSSICHLTNESDGHTTSLYGIGFGPFIITNKCLFRRNNGTLVVQSLHGVFKVKDTTTLQQHLVDGRDMIIIRMPKDFPPFPQKLKFREPQREERICLVTTNFQTKSMSSMVSDTSCTFPSGDGIFWKHWIQTKDGQCGSPLVSTRDGFIVGIHSASNFTNTNNYFTSVPKNFMELLTNQEAQQWVSGWRLNADSVLWGGHKVFMVKPEEPFQPVKEATQL [H47C] | 0.0573 | 0.062 | 0.0648 |  |  | 0.0558 | 0.0726 |  |  |  | 0.0583 | 0.0577 | 0.0376 | 0.0599 |  | 0.0383 | 0.0544 | 0.0636 | 
MGESLFKGPRDYNAISSSICHLTNESDGHTTSLYGIGFGPFIITNKHLFRRNNGTLVVQSLHGVFKVKDTTTLQQHLVDGRDMIIIRMPKDFPPFPQKLKFREPQREERICLVTTNFQTKSMSSMVSDTSCTFPSGDGIFWKHWIQTKDGQCGSPLVSTRDGFIVGIHSASNFTNTNNYFTSVPKNFMELLTNQEAQQWVSGWRLNADSVLWGGHKVFMVKPEEPFQPVKEATQL [P14A] | 0.129 | 0.116 | 0.121 | 0.115 |  | 0.126 |  |  | 0.159 | 0.148 | 0.103 | 0.124 |  | 0.0938 | 0.141 | 0.147 | 0.112 |  | 0.123
MGESLFKGPRDYNPISSSICHLTNESDGHTTSLYGIGFGPFIITNKHLFRRNNGTLVVQSLHGVFKVKDTTTLQQHLVDGRDMIIIRMPKDFPPFPQKLKFREPQREERICLVTTNFQTKSMSSMVSDTSCTFPSGDGIFWKHWIQTEDGQCGSPLVSTRDGFIVGIHSASNFTNTNNYFTSVPKNFMELLTNQEAQQWVSGWRLNADSVLWGGHKVFMVKPEEPFQPVKEATQL [K148E] | 0.0875 | 0.106 | 0.0856 | 0.0944 | 0.109 | 0.0844 | 0.0884 | 0.0883 | 0.102 | 0.107 | 0.0879 | 0.0828 | 0.0767 | 0.0859 | 0.0787 | 0.127 | 0.115 |  | 
MGESLFKGPRDYNPISSSICHLTNESDGHTTSLYGIGFGPFIITNKHLFRRNNGTLVVQSLHGVFKVKDTTTLQQHLVDGRDMIIIRMPKDFPPFPQKLKFREPQREERICLVTTNFQTKSMSSMVSDTSCTFPSGDGIFWKHWIQTKDGQCGSPLVSTRDGFIVGIHSASNFTNTNNYFTSVPKNFMELLTNQEAQQWVSGWRLNADSVLWGGCKVFMVKPEEPFQPVKEATQL [H215C] | 0.0735 | 0.068 | 0.0893 | 0.0703 |  | 0.0667 |  |  |  | 0.0812 | 0.03 | 0.082 |  |  |  | 0.0756 |  |  | 
MGESLFKGPRDYNPISSSICHLTNESDGHTTSLYGIGFGPFIITNKHLFRRNNGTLVVQSLHGVFKVKDTTTLQQHLVDGRDMIIIRMPKDFPPFPQKLKFREPQREERICLVTTNFQTKSMSSMVSDTSCTFPSGDGIFWKHWIQTKDGQCGSPLVSTRDGFIVGIHSASNFTNTNNYFTSVPKNFMELLTNQEAQQWVSGWRMNADSVLWGGHKVFMVKPEEPFQPVKEATQL [L205M] | 0.128 | 0.112 | 0.184 | 0.139 | 0.128 | 0.0999 |  | 0.134 |  | 0.118 | 0.106 | 0.13 | 0.102 | 0.102 | 0.109 | 0.146 |  | 0.125 | 0.12
MGESLFKGPRDYNPISSSICHLTEESDGHTTSLYGIGFGPFIITNKHLFRRNNGTLVVQSLHGVFKVKDTTTLQQHLVDGRDMIIIRMPKDFPPFPQKLKFREPQREERICLVTTNFQTKSMSSMVSDTSCTFPSGDGIFWKHWIQTKDGQCGSPLVSTRDGFIVGIHSASNFTNTNNYFTSVPKNFMELLTNQEAQQWVSGWRLNADSVLWGGHKVFMVKPEEPFQPVKEATQL [N24E] | 0.0892 | 0.073 | 0.115 | 0.0935 | 0.0964 | 0.0774 | 0.104 | 0.0888 | 0.146 | 0.123 | 0.0845 | 0.0884 | 0.122 | 0.0754 | 0.0876 | 0.0847 |  | 0.065 | 
MGESLFKGPRDYNPISSSICHLTNESDGHTTSLYGIGFGPFIITNKHLFRRNNGTLVVQSLHGVFKVKDTTTLQQHLVDGRDMIIIRMPKDFPPFPQKLKFREPQREERICLVTTNFQTKSMSSMVSDTSCTFPSGDGIFWKHWIQTKDGQCGSPLVGTRDGFIVGIHSASNFTNTNNYFTSVPKNFMELLTNQEAQQWVSGWRLNADSVLWGGHKVFMVKPEEPFQPVKEATQL [S158G] | 0.145 | 0.103 | 0.108 | 0.107 | 0.0853 | 0.104 | 0.118 | 0.116 | 0.0929 |  | 0.106 | 0.106 | 0.136 | 0.0791 |  | 0.123 |  | 0.0761 | 0.143
MGESLFKGPRDYNPISSSICHLTNESDGHLTSLYGIGFGPFIITNKHLFRRNNGTLVVQSLHGVFKVKDTTTLQQHLVDGRDMIIIRMPKDFPPFPQKLKFREPQREERICLVTTNFQTKSMSSMVSDTSCTFPSGDGIFWKHWIQTKDGQCGSPLVSTRDGFIVGIHSASNFTNTNNYFTSVPKNFMELLTNQEAQQWVSGWRLNADSVLWGGHKVFMVKPEEPFQPVKEATQL [T30L] | 0.103 | 0.0736 | 0.117 | 0.0855 |  | 0.0946 | 0.0951 | 0.0987 |  | 0.0625 |  | 0.117 |  |  | 0.0918 | 0.14 | 0.114 | 0.0997 | 0.0925

From the supplement of paper PMC12217912
